Test results taken from PubChem BioAssay AID1030 (National Center for Advancing Translational Sciences (NCATS), 2008).
About 16,000 (7.3%) of roughly 220,000 compounds were called active. The inconclusive results got no clear call from the source; some entries with a clear call stand among them for comparison. The call rests on the fitted dose curve; in most records, active means well fitted inhibition curve with a large enough effect (not every such curve was filed as active); inconclusive means small, poorly fitted or top-dose-only effect, or another doubt; inactive means no such curve, though single readings can be large or run the other way. Potencies of inconclusive entries are left out as doubtful fits.

target: Aldehyde dehydrogenase 1A1 (Homo sapiens) (UniProt P00352); assay: qHTS Assay for Inhibitors of Aldehyde Dehydrogenase 1 (ALDH1A1); details: Purified ALDH1A1, NADH fluorescence, propionaldehyde substrate; series mostly up to 75.3 µM; activity, negative = inhibition: at the top concentration;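 on activity, negative = inhibition: plate controls were no enzyme wells and a reference inhibitor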
Potency means the concentration at half of the fitted maximal effect; tags describe the fitted curve by direction and shape.

Sequence of UniProt P00352 (P00352 whole entry, looked up): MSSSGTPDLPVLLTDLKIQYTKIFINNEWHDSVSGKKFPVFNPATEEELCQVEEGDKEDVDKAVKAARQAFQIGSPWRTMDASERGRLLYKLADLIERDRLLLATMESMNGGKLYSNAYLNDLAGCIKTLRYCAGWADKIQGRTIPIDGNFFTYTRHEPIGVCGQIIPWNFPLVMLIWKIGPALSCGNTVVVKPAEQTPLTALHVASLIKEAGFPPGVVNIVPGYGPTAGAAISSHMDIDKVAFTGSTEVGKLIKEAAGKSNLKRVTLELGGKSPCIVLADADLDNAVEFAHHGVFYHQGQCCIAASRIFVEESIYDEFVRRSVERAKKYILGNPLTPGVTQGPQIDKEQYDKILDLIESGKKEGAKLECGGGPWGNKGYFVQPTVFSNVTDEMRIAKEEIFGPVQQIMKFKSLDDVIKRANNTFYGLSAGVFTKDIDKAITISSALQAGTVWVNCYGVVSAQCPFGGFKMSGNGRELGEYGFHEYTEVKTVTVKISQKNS

SMILES | Potency | activity, negative = inhibition
O=C(O)/C=C/C(=O)Nc1ccc(-c2ccccc2)cc1 | active: 3.16 µM | –
O=C(COC(=O)CCC(=O)c1ccc(F)cc1)Nc1ccc(F)cc1F | inconclusive [inhibitor, full curve, poor fit] | –
Cc1ccc(N2C(S)=C(C#N)C(=O)NC2c2ccco2)cc1 (centres undefined) | inconclusive [inhibitor, single point] | –
Cc1ccc(NC(=O)c2ccc(Br)o2)cc1S(=O)(=O)N(C)C | active: 14.1 µM | –
COc1ccc(NC(=O)CSc2nnc(-c3ccccc3C)n2N)cc1 | active: 12.6 µM | –
COC(=O)N/N=C\c1ccc(OC(=O)c2ccco2)cc1 | inconclusive [inhibitor, partial curve] | –
O=C1OC(O)C(C(Cl)Cl)=C1Cl (centres undefined) | active: 20 µM | –
Cc1cc(C(=O)CN2CC(C)OC(C)C2)c(C)n1-c1ccccc1 (centres undefined) | – | inactive: -6.62%
COc1cc(NC(=O)Nc2cccc([N+](=O)[O-])c2)cc(OC)c1 | – | inactive: -3.11%
CCC(C)C(=O)N1c2ccccc2C(=C2SC(C(=O)OC)=C(C(=O)OC)S2)C(=S)C1(C)C (centres undefined) | – | inactive: -7.16%
C/C(N)=C(/C#N)C(=O)CSc1nc2cc(Cl)ccc2s1 | – | inactive: -0.865%
CC1CCN(c2cc(N(C)CCO)c([N+](=O)[O-])c3nonc23)CC1 | inconclusive [inhibitor, partial curve] | –
Clc1ccc(/C=C\c2nc(Cl)c(-c3ccc(Cl)cc3)c(Cl)n2)cc1 | inconclusive [inhibitor, single point] | –
CCN(C(=S)NC(=O)CCc1ccccc1)c1ccccc1 | inconclusive [inhibitor, single point] | –
CCC(=O)N1CCc2cc(S(=O)(=O)NCCN3CCC(C)CC3)ccc21 | – | inactive: -2.79%
CN1C(=O)c2cccc(NC(=O)Cc3ccccc3)c2C1=O | inconclusive [inhibitor, partial curve] | –
CN=C(Nc1ccc(Br)cc1)SC1CC(=O)N(c2ccc(OC)cc2)C1=O (centres undefined) | inconclusive [inhibitor, single point] | –
CCc1nnc(NC(=O)CSc2nnc(-c3ccncc3)n2C)s1 | – | inactive: 0.658%
Cc1c(NC=C(C#N)C#N)c(=O)n(-c2ccccc2)n1C | – | inactive: 2.82%
Cc1cccc2cc(CN(Cc3ccco3)C(c3nnnn3CCc3ccccc3)C(C)C)c(=O)[nH]c12 (centres undefined) | active: 31.6 µM | –
COc1cccc(Oc2ccc(N/C=C/C(=O)C(C)(C)C)cc2)c1 | active: 10 µM | –
NC(=O)c1ccccc1NC(=O)CN1CCOCC1 | inconclusive [inhibitor, single point] | –
Cc1[nH][nH]c(=O)c1C(c1cc2c(cc1Br)OCO2)c1c(C)[nH][nH]c1=O | inconclusive [inhibitor, partial curve] | –
CCc1ccc(C(=O)NCc2ccc(Cl)cc2)cc1 | – | inactive: 12.7%
CCCN1C(=O)C2(/C(=C(\O)c3ccc4c(c3)OCCO4)C(=O)C(=O)N2CCCOC)c2ccccc21 (centres undefined) | inconclusive [inhibitor, partial curve] | –
CN1CCN(CC(=O)Nc2nnc(-c3cccs3)s2)CC1 | inconclusive [inhibitor, single point] | –
COC(=O)Cc1c(C)c2ccc(OCc3nn[nH]n3)cc2oc1=O | inconclusive [inhibitor, partial curve] | –

SMILES | Potency | activity, negative = inhibition
CCOC(=O)c1ccc(NC(=S)NCCc2ccccc2)cc1 | inconclusive [inhibitor, single point] | –
CC/C(C)=N/N1C(=O)c2ccccc2NC1(C)CC (centres undefined) | inconclusive [inhibitor, partial curve] | –
CC1=N/C(=C/c2cccnc2)C(=O)O1 | – | inactive: 10.2%
Cc1ccc(C)n1NC(=O)c1ccc(Cl)cc1Cl | – | inactive: 3.58%
Cc1ccn(C(=O)c2ccc(NC(=O)C3CC3)cc2)n1 | – | inactive: -4.27%
O=S(=O)(/C=C/c1ccccc1)N1CCN(c2nc(-c3ccccc3)nc3ccccc23)CC1 | – | inactive: -4.86%
CN(C)CCCNC(=O)c1cc2sc3ccccc3c2s1 | inconclusive [inhibitor, single point] | –
Cc1cccc(NC(=S)N(CCCN2CCOCC2)Cc2ccco2)c1 | inconclusive [inhibitor, single point] | –
C#CCOCCOCCOCCNc1nc(N2CCN(C(=O)[C@H]([C@@H](C)CC)n3cc([C@@H](N)CO)nn3)CC2)nc(N2CCN(C(=O)[C@H](CCCCN)n3cc([C@@H](N)CC(C)C)nn3)CC2)n1 | – | inactive: 2.78%
CC1=CC(=O)[C@@H]2C[C@H]1C2(C)C | – | inactive: -0.92%
COc1ccc(Oc2ncc3nc(-c4ccc(Cl)cc4)c(=O)n(CCC#N)c3n2)cc1 | inconclusive [inhibitor, single point] | –
CCOc1cc(S(=O)(=O)NCc2ccco2)c(OCC)cc1-n1cnnn1 | inconclusive [inhibitor, partial curve] | –
Cc1cc(C)n2cc(CSCc3ccco3)nc2n1 | inconclusive [inhibitor, partial curve] | –
O=C(O)c1nnn(-c2cc(C(F)(F)F)cc(C(F)(F)F)c2)c1-c1ccccc1 | inconclusive [inhibitor, single point] | –
CCN(CC(=O)Nc1ccc2c(c1)CCC2)Cc1nc2ccccc2c(=O)[nH]1 | active: 14.1 µM | –
O=C(c1cccc(F)c1)N1CCC2(CCCN(c3cccc(-c4ccccc4)c3)C2)CC1 | active: 11.2 µM | –
Cc1ccc(/C=C/C(=O)c2ccccc(=O)c2O)c(C)c1 | – | inactive: -1.65%
Cc1cc(C)nc(/N=C2\NC(=O)CC(C(=O)O)N2c2ccc(C)c(C)c2)n1 (centres undefined) | – | inactive: -2.43%
O=C(Oc1ccccc1)N(c1ccccc1)c1ccccc1 | – | inactive: -6.11%
CCOC(=O)C1(CCc2ccccc2)CCN(C(=O)CCn2cncn2)CC1 | – | inactive: -1.47%
Cc1ccc(NC2OC(CO)C(O)C(O)C2O)cc1 (centres undefined) | – | inactive: -3.12%
S=C(NCc1ccccc1)NN1CCOCC1 | – | inactive: -5.79%
Cc1ccccc1OCC(O)CN1CCN(c2ccccn2)CC1 (centres undefined) | inconclusive [inhibitor, single point] | –
CCCCCc1ccc(OCCCC[n+]2cccc(C)c2)c(CCCCC)c1 | inconclusive [inhibitor, partial curve] | –
O=[n+]1cc(-c2ccc(Br)cc2)n([O-])c2c1CCC2 | – | inactive: 4.87%
CCNc1ncc2nc(-c3cccs3)c(=O)n(-c3ccccc3)c2n1 | inconclusive [inhibitor, single point] | –
COc1ccc(NC(=O)C2CCCN2c2ccc(OC)c(OC)c2)cc1OC (centres undefined) | – | inactive: 4.18%

SMILES | Potency | activity, negative = inhibition
C=CCNC(=S)NNC(=O)c1csc(CC)c1 | – | inactive: 6.98%
COc1ccc(OCC(O)CNC(=O)c2ccc(C)cc2)cc1 (centres undefined) | – | inactive: -8.38%
Cc1cc(NCCCn2ccnc2)n2nc(-c3ccc(F)cc3)cc2n1 | inconclusive [inhibitor, single point] | –
CNC(=O)COc1ccc(C=O)cc1OC | inconclusive [inhibitor, single point] | –
COC(=O)CCC(=O)Nc1sc2c(c1C#N)CCCC2 | active: 11.2 µM | –
CCOC(=O)C1=C(c2ccccc2)NC(SCC(=O)NC2CCCCC2)=C(C#N)C1c1ccco1 (centres undefined) | active: 17.8 µM | –
Cc1ccc(C2c3c(oc4ccc(Cl)cc4c3=O)C(=O)N2CCCN2CCOCC2)o1 (centres undefined) | inconclusive [inhibitor, partial curve] | –
CCc1ccc2oc(-c3ccc(OC)cc3)cc(=Nc3cccc(C(=O)O)c3)c2c1 | inconclusive [inhibitor, partial curve] | –
COc1ccc(NC(=O)c2ccc(CNc3c(NC4CCCCC4)c(=O)c3=O)cc2)cc1OC | – | inactive: -13%
CCN(Cc1ccccc1)S(=O)(=O)c1ccc(S(=O)(=O)N2CCN(CCC#N)CC2)cc1 | inconclusive [inhibitor, single point] | –
C[N+](C)(C)C/C=C1/COCO1 | – | inactive: 1.96%
CC(C)(C)c1nc(NCCN2CCOCC2)c2nnn(Cc3ccccc3Cl)c2n1 | inconclusive [inhibitor, single point] | –
CC(SC(=S)N1CCCC1)C(=O)O (centres undefined) | – | inactive: 1.86%
CCCOc1ccc(C(C(=O)OCCN(CC)CC)c2ccccc2)cc1 (centres undefined) | inconclusive [inhibitor, single point] | –
Cc1cnc(NC(=O)CN2CCN(c3ccccc3F)CC2)s1 | inconclusive [inhibitor, partial curve] | –
COc1ccc(NC(=O)CSc2nnc(CCC(=O)Nc3ccc(C)c(Cl)c3)n2C)cc1 | – | inactive: 1.16%
Cc1ccc(C(=O)NC(=S)Nc2ccc(S(=O)(=O)N3CCN(C)CC3)cc2)cc1 | inconclusive [inhibitor, single point] | –
CCCCCCCCCCCC(=O)NC1CCS(=O)(=O)C1 (centres undefined) | – | inactive: 5.82%
CC(=O)NC(=S)Nc1ccccc1F | inconclusive [inhibitor, single point] | –
CN1C2C=C3C(C#N)=C(N)C(C#N)(C#N)[C@@H](c4ccc(Cl)cc4)[C@@H]3C1CC2 (some centres undefined) | inconclusive [inhibitor, single point] | –
COC(=O)C1=C(C)C(c2ccc(OC)cc2)NC(=S)N1 (centres undefined) | active: 8.91 µM | –
CC(C)NC(=O)COc1ncnc2sccc12 | – | inactive: 8.67%
Cc1cccc(NC(=S)NCC23C=CC(O2)C2C(=O)N(c4ccc(Cl)cc4)C(=O)C23)c1 (centres undefined) | active: 1.41 µM | –
Cc1cccc(N(C)c2cc(C)nc3nc(C)nn23)c1 | – | inactive: 8.79%
CCc1cc2c3c(c1)C1(C(=O)N3C(C)(C)CC2C)C(C#N)=C(N)N2C(=C1C#N)Nc1ccccc12 (centres undefined) | inconclusive [inhibitor, full curve, poor fit] | –
